# Some of the results follow. The main result of the screen is listed elsewhere. These columns were measured beside it and carry no call.
# Tests used:
# Experiment in all cases: Primary Screen for Target Class Profiling of Small Molecule Inhibitors of Methyltransferases
# [1] = target: Glycine N-methyltransferase (Homo sapiens) (UniProt Q14749); details: purified enzyme, MTase-Glo SAH luminescence; measured here: GNMT inhibition; at 40 µM; stronger effect = lower value
# Method in brief: (§1)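 Each enzyme was assayed with SAM and its substrate. SAH formation detected by MTase-Glo luminescence; single-point 40 uM screen[…].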
# [2] = target: Guanidinoacetate N-methyltransferase (Homo sapiens) (UniProt Q14353); details: purified enzyme, MTase-Glo SAH luminescence; measured here: GAMT inhibition; at 40 µM; stronger effect = lower value
# Method in brief: as §1
# [3] = target: Histamine N-methyltransferase (Homo sapiens) (UniProt P50135); details: purified enzyme, MTase-Glo SAH luminescence; measured here: HNMT inhibition; at 40 µM; stronger effect = lower value
# Method in brief: as §1
# [4] = target: Nicotinamide N-methyltransferase (Homo sapiens) (UniProt P40261); details: purified enzyme, MTase-Glo SAH luminescence; measured here: NNMT inhibition; at 40 µM; stronger effect = lower value
# Method in brief: as §1
# [5] = target: Phenylethanolamine N-methyltransferase (Homo sapiens) (UniProt P11086); details: purified enzyme, MTase-Glo SAH luminescence; measured here: PNMT inhibition; at 40 µM; stronger effect = lower value
# Method in brief: as §1
# On the % scale 0 is the no-effect control and ±100 the full control effect.
Structure (SMILES),"activity change, negative = inhibition [1] [%]","activity change, negative = inhibition [2] [%]","activity change, negative = inhibition [3] [%]","activity change, negative = inhibition [4] [%]","activity change, negative = inhibition [5] [%]"
CC(C)C(=O)N1CCC(CCOc2ccc(F)cc2)C1 (configuration not stated),0.918,2.43,-0.012,-0.903,-1.91
CC(=O)NCC(=O)N1Cc2ccccc2CC2(CCN(CC3CCCCC3)C2)C1 (configuration not stated),-2.86,-6.25,-1.79,-12,-3.74
CCN(CC)Cc1cc(C2CC(=O)Nc3n[nH]c(C(=O)O)c32)ccc1OC (configuration not stated),0.27,-0.019,1.46,-7.61,5.48
C=CCCC(=O)N1CCOc2c(O)cc(-c3nc4ccccc4s3)cc2C1,-21.1,-1.7,-18.7,-23.5,-15.2
CC(CN1C(=O)c2ccc(-c3ccco3)n2CC1(C)C(=O)NC1CCCC1)c1ccccc1 (configuration not stated),-2,-0.013,5.7,3.28,-1.81
CCOC(=O)Cc1ccc(NC(=O)N2Cc3c(sc4c3CCCC4)-n3cccc3C2c2cccc(F)c2)cc1 (configuration not stated),-4.24,0,-4.31,-4.09,1.1
COC(=O)c1sccc1S(=O)(=O)Nc1ccc(Nc2ccccc2)cc1OC,-0.887,-4.43,9.01,-15.6,1.48
Cc1ccc(-c2n[nH]n3c2nc(=O)c2ccc(C(=O)NC4CC4)cc23)cc1,-0.51,0.855,8.02,6.3,3.87
COc1ccccc1C(=O)N1CCC(Cc2nncn2-c2ccccc2)CC1,-4.78,-5.51,-1.28,-11.7,-4.7
COc1cccc(CN2C(=O)c3nc4ccccc4n3CC2(C)C(=O)NC2CCCCCC2)c1 (configuration not stated),-7.72,1.79,-3.69,-10.3,-3.78
CCOCCCNC(=O)c1cc2n(n1)CC(C)(C(=O)NC1CCCC1)N(CC)C2=O (configuration not stated),7.39,0.248,-5.54,11.2,6.84
CC1(C(=O)NCc2ccccc2)Cn2c(nc3ccccc32)C(=O)N1C1CC1 (configuration not stated),3.83,0,0.673,9.37,0.978
Cc1cccc(-c2[nH]ncc2-c2ccnc3ccccc23)n1,-0.885,3.97,-28.5,-18.2,6.26
CC1(C(=O)NCc2ccccc2)Cn2c(cc3ccccc32)C(=O)N1Cc1cccs1 (configuration not stated),0.514,5.16,2.86,-3.49,-5.09
CC(C)=CC[C@H]1O[C@]2(O)C([C@H]3CCC4[C@@]5(C)CC[C@H](O[C@@H]6O[C@H](CO)[C@H](O)[C@H](O[C@@H]7O[C@H](CO)[C@@H](O)[C@H](O)[C@H]7O)[C@H]6O[C@@H]6O[C@@H](C)[C@H](O)[C@@H](O)[C@H]6O)C(C)(C)C5CC[C@@]4(C)[C@]3(C)[C@H]2O)[C@@]1(C)O (some centres not stated),-2.07,-2.97,3.92,-10.8,1.31
CCCCN1C(=O)c2c(NC(C)=O)c3cc(F)ccc3n2CC1(C)C(=O)NCCC(C)C (configuration not stated),8.27,1.41,9.93,11.2,3.86
COc1c2ccoc2nc2c(OC)c(O[C@@H]3O[C@@H](C)[C@H](O)[C@@H](O[C@@H]4O[C@H](CO)[C@@H](O)[C@H](O)[C@H]4O)[C@H]3OC(C)=O)ccc12,0.722,-0.026,6.41,-10.1,-2.63
Cc1ccc(NC(=O)CSc2nnc3n(CCCOC(C)C)c(=O)c4ccccc4n23)c(C)c1,-3.18,3.49,-6.78,-9.75,-0.914
CN1CCN(C(=O)c2cc(C3CC3)[nH]n2)CC12CCNC(=O)CC2 (configuration not stated),-2.89,-5.79,-3.49,-6.03,0.088
COc1cc2c(NC(C)=O)c3n(c2cc1OC)CC(C)(C(=O)NC1CCCCCC1)N(CCC(C)C)C3=O (configuration not stated),1.1,4.13,3.37,10.7,1.12
Cn1c(=O)c2ccc(C(=O)NC3CCCCC3)cc2n2c(SCC(=O)c3ccccc3)nnc12,2.26,0.269,3.73,10.4,9.41
CCC(C)NC(=O)c1ccc2c(=O)n(C)c3n[nH]c(=O)n3c2c1 (configuration not stated),-0.849,0,3.6,11.5,-2.75
CCN1c2cc(C(=O)Nc3cccc(F)c3)ccc2C(=O)N2CCCC21 (configuration not stated),-6.02,-2.59,-3.43,-3.54,1.58
Cc1ccc(NS(=O)(=O)c2ccc3[nH]c4c(c3c2)CCCC4)c(C)c1,5.42,6.28,4.05,-3.36,5.33
O=C(CCc1nnc2n(Cc3ccccc3)c(=O)c3ccccc3n12)Nc1ccc(F)cc1,-9.05,-18.7,7.5,-5.03,0.752
O=C(O)CCC(=O)N1CCCC1C(=O)O (configuration not stated),-6.51,1.9,-0.832,-3.87,5.16
COC(=O)c1ncn2c1C(=O)N(Cc1ccc(C)o1)C(C)(C(=O)NCc1ccccc1)C2 (configuration not stated),-0.59,3.33,13.8,4.92,8.12
CC1(C)CC[C@]2(C(=O)O)CC[C@]3(C)C(=CCC4[C@@]5(C)CC[C@H](O)C(C)(C)C5CC[C@]43C)C2C1 (some centres not stated),-0.355,–,0.319,–,–
COc1ccc(NC(=O)CSc2nnc3n(CCC(C)C)c(=O)c4ccccc4n23)cc1OC,1.13,0,7.31,0.04,3.6

# Reference: PubChem BioAssay AID1745853 (National Center for Advancing Translational Sciences (NCATS), 2022)
